# Data reported in a collection of fitness landscapes (doi:10.1016/j.celrep.2020.107928).
# In all, about 81,000 sequences were measured (“one-hybrid fitness for binding NBS DNA”: median about -0.1, highest 2% from about 0.36 on). The list shows a part of the results.
# B1: Caulobacter ParB omega fusion; a variant is named by its letters at X, in order, B8GW30 (parent)
# chain: MESVVVGEPGMSEGRRGLGRGLSALLGEVDAAPAQAPGEQLGGSREAPIEILQRNPDQPRRTFREEDLEDLSNSIREKGVLQPILVRPSPDTAGEYQIVAGERAWRAAQRAGLKTVPIMVRELDDLAVLEIGIIENVQRADLNVLEEALSYKVLMEKFERTQENIAQTIGKSXSHVANXMRLLXLPDEVQSYLVSGELTAXHARAIAAAADPVALAKQIIEGGLSVRETEALARKAPNLSAGKSKGGRPPRVKDTDTQALESDLSSVLGLDVSIDHRGSTGTLTITYATLEQLDDLCNRLTRGI
# Variants of: B1
# Assay: one-hybrid fitness for binding NBS DNA (the Noc-binding site; scaled: cognate 1, non-cognate 0); higher = stronger binding
# Conditions: with NBS DNA site
# Summary of the method: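 Values were rescaled so that cognate is 1 and non-cognate is 0. Each is a fitness, the log change in a variant's read ratio to wild type from Illumina reads of plasmids before and after selection, with three replicate libraries pooled and variants under 10 reads dropped. Selection of the Caulobacter ParB libraries, four specificity codons randomised, used E. coli USO with a HIS3 reporter, site 19 bp from the promoter, on M9-minus-histidine with 0.1 mM IPTG and 5 mM 3-AT for 48 hours at 37°C.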
row,Variant,one-hybrid fitness for binding NBS DNA
1,RLFG,≤ 0.2
2,YKWR,≤ 0.2
3,RTKW,≤ 0.2
4,ILPT,≤ 0.2
5,CSTE,≤ 0.2
6,SSLD,≤ 0.2
7,KASL,≤ 0.2
8,LNPP,≤ 0.2
9,WYLT,≤ 0.2
10,VTAI,≤ 0.2
11,QRWH,0.301
12,AYVY,≤ 0.2
13,YNHS,≤ 0.2
14,SYRP,≤ 0.2
15,YRRL,≤ 0.2
16,SCRE,≤ 0.2
17,AWTT,≤ 0.2
18,DCNG,≤ 0.2
19,NHSA,≤ 0.2
20,STVW,≤ 0.2
21,FNIS,≤ 0.2
22,HLYG,≤ 0.2
23,SSRK,≤ 0.2
24,TLEC,≤ 0.2

row,Variant,one-hybrid fitness for binding NBS DNA
1,LESY,≤ 0.2
2,WVAT,≤ 0.2
3,HPWP,≤ 0.2
4,ENRT,≤ 0.2
5,LLYR,≤ 0.2
6,VHHK,≤ 0.2
7,LSGA,≤ 0.2
8,YADA,≤ 0.2
9,MYES,≤ 0.2
10,AMHT,≤ 0.2
11,IIVH,≤ 0.2
12,NMQR,≤ 0.2
13,GSCR,≤ 0.2
14,NGPV,≤ 0.2
15,PMDC,≤ 0.2
16,KYTR,≤ 0.2
17,KCPR,≤ 0.2
18,VWSD,≤ 0.2
19,TIPG,≤ 0.2
20,NYEG,≤ 0.2
21,CAVT,≤ 0.2
22,VLPT,≤ 0.2
23,SCTT,≤ 0.2
24,AVPQ,≤ 0.2

row,Variant,one-hybrid fitness for binding NBS DNA
1,LTLD,≤ 0.2
2,HWWS,≤ 0.2
3,WAHY,≤ 0.2
4,DPLR,≤ 0.2
5,RSYL,≤ 0.2
6,IRNS,≤ 0.2
7,AASY,≤ 0.2
8,VRNV,≤ 0.2
9,MWCS,≤ 0.2
10,LDRG,≤ 0.2
11,IQAS,≤ 0.2
12,LTDE,≤ 0.2
13,LAAQ,≤ 0.2
14,DRAR,≤ 0.2
15,RDSI,≤ 0.2
16,EYYF,≤ 0.2
17,SYYC,≤ 0.2
18,TQIT,≤ 0.2
19,EKEC,≤ 0.2
20,EPER,≤ 0.2
21,TTNA,≤ 0.2
22,DVPD,≤ 0.2
23,PVDR,≤ 0.2
24,HERG,≤ 0.2

row,Variant,one-hybrid fitness for binding NBS DNA
1,TQAE,≤ 0.2
2,RIAG,≤ 0.2
3,WSDF,≤ 0.2
4,HHAL,≤ 0.2
5,WKLC,≤ 0.2
6,LPLQ,≤ 0.2
7,HRID,≤ 0.2
8,THCI,≤ 0.2
9,WMGR,≤ 0.2
10,LQEI,≤ 0.2
11,RPGP,≤ 0.2
12,HMMK,≤ 0.2
13,DISI,≤ 0.2
14,IVWC,≤ 0.2
15,NFRS,≤ 0.2
16,METF,≤ 0.2
17,MGLT,≤ 0.2
18,YMQR,≤ 0.2
19,QRVM,0.265
20,VDID,≤ 0.2
21,YRAT,≤ 0.2
22,EIKM,≤ 0.2
23,RNGE,≤ 0.2
24,TMPN,≤ 0.2

row,Variant,one-hybrid fitness for binding NBS DNA
1,VRGK,≤ 0.2
2,YNWT,≤ 0.2
3,LCVL,≤ 0.2
4,DDTF,≤ 0.2
5,NQLN,≤ 0.2
6,MTSL,≤ 0.2
7,DTTD,≤ 0.2
8,LYLV,≤ 0.2
9,GWDC,≤ 0.2
10,ELEC,≤ 0.2
11,PSAV,≤ 0.2
12,LPYM,≤ 0.2
13,QRPD,≤ 0.2
14,VPTV,≤ 0.2
15,VYML,≤ 0.2
16,NRAF,≤ 0.2
17,ALCA,≤ 0.2
18,RHNA,0.219
19,PRWN,≤ 0.2
20,RFAK,≤ 0.2
21,MRDC,≤ 0.2
22,TQTC,≤ 0.2
23,DSMA,≤ 0.2
24,ALDG,≤ 0.2

row,Variant,one-hybrid fitness for binding NBS DNA
1,GLDS,≤ 0.2
2,QSIV,≤ 0.2
3,RQRA,0.341
4,CWQR,≤ 0.2
5,KSNF,≤ 0.2
6,ARTF,≤ 0.2
7,KQTS,≤ 0.2
8,QCPY,≤ 0.2
9,PYKF,≤ 0.2
10,TDRP,≤ 0.2
11,STDM,≤ 0.2
12,MITR,≤ 0.2
13,SGLH,≤ 0.2
14,QTRY,0.685
15,PREC,≤ 0.2
16,RMMV,≤ 0.2
17,GRTR,≤ 0.2
18,PCTL,≤ 0.2
19,PYKA,≤ 0.2
20,LGGR,≤ 0.2
21,PTHE,≤ 0.2
22,EPVC,≤ 0.2
23,DCIM,≤ 0.2
24,QVVY,≤ 0.2

row,Variant,one-hybrid fitness for binding NBS DNA
1,GQFC,≤ 0.2
2,DGSD,≤ 0.2
3,KTFV,≤ 0.2
4,QGVM,≤ 0.2
5,VNAN,≤ 0.2
6,IAYG,≤ 0.2
7,QNAR,≤ 0.2
8,LMSF,≤ 0.2
9,SIML,≤ 0.2
10,IPDY,≤ 0.2
11,LTFV,≤ 0.2
12,THNI,≤ 0.2
13,GELK,≤ 0.2
14,VDDL,≤ 0.2
15,NATY,≤ 0.2
16,TQVV,≤ 0.2
17,TCAW,≤ 0.2
18,SYLA,≤ 0.2
19,RWNQ,≤ 0.2
20,MYEG,≤ 0.2
21,AAAG,≤ 0.2
22,CFQG,≤ 0.2
23,DQHS,≤ 0.2
24,WGAA,≤ 0.2

row,Variant,one-hybrid fitness for binding NBS DNA
1,KQWR,≤ 0.2
2,CFNE,≤ 0.2
3,YHLC,≤ 0.2
4,LSWN,≤ 0.2
5,MTTC,≤ 0.2
6,KHVR,≤ 0.2
7,CDSC,≤ 0.2
8,KHPI,≤ 0.2
9,TALT,≤ 0.2
10,TDTM,≤ 0.2
11,TCYR,≤ 0.2
12,ETNQ,≤ 0.2
13,NPEG,≤ 0.2
14,CYDR,≤ 0.2
15,HFAG,≤ 0.2
16,QDVI,≤ 0.2
17,PPMV,≤ 0.2
18,LESW,≤ 0.2
19,QSAF,≤ 0.2
20,IQLP,≤ 0.2
21,MESK,≤ 0.2
22,MLCM,≤ 0.2
23,CCER,≤ 0.2
24,LLKE,≤ 0.2

row,Variant,one-hybrid fitness for binding NBS DNA
1,SLTQ,≤ 0.2
2,QVNH,≤ 0.2
3,IVLW,≤ 0.2
4,KFRE,≤ 0.2
5,LATV,≤ 0.2
6,NVIC,≤ 0.2
7,VTGV,≤ 0.2
8,RWEL,≤ 0.2
9,WFTC,≤ 0.2
10,QKNQ,0.245
11,IMKS,≤ 0.2
12,HAVW,≤ 0.2
13,CFLS,≤ 0.2
14,GMYS,≤ 0.2
15,LCMV,≤ 0.2
16,TWDF,≤ 0.2
17,IMTW,≤ 0.2
18,TMHM,≤ 0.2
19,TYTK,≤ 0.2
20,DTEY,≤ 0.2
21,TGRH,≤ 0.2
22,TSYM,≤ 0.2
23,VFSC,≤ 0.2
24,QSEE,≤ 0.2

row,Variant,one-hybrid fitness for binding NBS DNA
1,RNSL,≤ 0.2
2,MNSS,≤ 0.2
3,GNHA,≤ 0.2
4,DHLS,≤ 0.2
5,AYFL,≤ 0.2
6,GGRI,≤ 0.2
7,GDIL,≤ 0.2
8,RGQW,≤ 0.2
9,QHQN,≤ 0.2
10,TWST,≤ 0.2
11,QKYA,0.249
12,LSSY,≤ 0.2
13,LDVA,≤ 0.2
14,LRIG,≤ 0.2
15,MMDT,≤ 0.2
16,NSCD,≤ 0.2
17,MPPL,≤ 0.2
18,MTSR,≤ 0.2
19,VKGR,≤ 0.2
20,GSVP,≤ 0.2
21,SFHC,≤ 0.2
22,KDAD,≤ 0.2
23,AFAS,≤ 0.2
24,SMNL,≤ 0.2

row,Variant,one-hybrid fitness for binding NBS DNA
1,LWYS,≤ 0.2
2,SPHG,≤ 0.2
3,LGVR,≤ 0.2
4,MAYI,≤ 0.2
5,KPVA,≤ 0.2
6,EQPT,≤ 0.2
7,FFIG,≤ 0.2
8,TILC,≤ 0.2
9,GPVN,≤ 0.2
10,RVCG,≤ 0.2
11,STNY,≤ 0.2
12,CKKR,≤ 0.2
13,AAVT,≤ 0.2
14,RIFW,≤ 0.2
15,ERAA,≤ 0.2
16,HWRV,≤ 0.2
17,HKLS,≤ 0.2
18,PNIC,≤ 0.2
19,REGC,≤ 0.2
20,RSHW,≤ 0.2
21,RYMT,0.364
22,EIRR,≤ 0.2
23,EFTC,≤ 0.2
24,DNDK,≤ 0.2

row,Variant,one-hybrid fitness for binding NBS DNA
1,SRGN,≤ 0.2
2,LWVD,≤ 0.2
3,ASCD,≤ 0.2
4,LNMQ,≤ 0.2
5,AAAT,≤ 0.2
6,QQFF,≤ 0.2
7,YAQS,≤ 0.2
8,ADAM,≤ 0.2
9,RIQT,0.329
10,ANMN,≤ 0.2
11,ATCG,≤ 0.2
12,STPE,≤ 0.2
13,ARKV,≤ 0.2
14,RDVR,≤ 0.2
15,VCTD,≤ 0.2
16,ATLE,≤ 0.2
17,DNEF,≤ 0.2
18,IIHS,≤ 0.2
19,KSYN,≤ 0.2
20,GPVQ,≤ 0.2
21,YNHY,≤ 0.2
22,LSLV,≤ 0.2
23,RWNL,≤ 0.2
24,VTWS,≤ 0.2

row,Variant,one-hybrid fitness for binding NBS DNA
1,VSYL,≤ 0.2
2,EATR,≤ 0.2
3,TQVS,≤ 0.2
4,TVLH,≤ 0.2
5,APAC,≤ 0.2
6,EESR,≤ 0.2
7,NAGR,≤ 0.2
8,PPEY,≤ 0.2
9,SLVN,≤ 0.2
10,QEMR,≤ 0.2
11,VEVT,≤ 0.2
12,NPTK,≤ 0.2
13,RNKM,≤ 0.2
14,MALE,≤ 0.2
15,YPRL,≤ 0.2
16,LNKG,≤ 0.2
17,MKIS,≤ 0.2
18,SEDT,≤ 0.2
